Experimental data reported in patent US20140377805A1.

Molecular target: equal amounts of hIL-1α and hIL-1β
Assay: cell-based or functional assay

dual-inhibition activity, IL-8 synthesis by MRC-5 cells with both cytokines present: 2.2 nM
B1: hIL-1a/bDVD1-Ig (bispecific antibody, human IgG1, kappa)
heavy: QVQLQQSGAELVRPGSSVKISCKASGYAFSSYWMNWVKQRPGQGLEWIGQIYPGDGDTNYNGKFKGKATLTADKSSSTSYMQLSGLTSEDSAMYFCVRFPTGNDYYAMDYWGQGTSVTVSSQIQLVQSGPELKKPGETVKISCKASGYTFRNYGMNWVKQAPGKDLKRMAWINTYTGESTYADDFKGRFAFSLETSASTAYLQINNLKNEDTATYFCARGIYYYGSSYAMDYWGQGTSVTVSS[letters of human IgG1 constant region left out]
light: NIVLTQSPASLAVSLGQRATISCRASESVDSYGNSYMHWYQQKPGQPPKLLIYLASNLESGVPARFSGSGSRTDFTLTIDPVEADDAATYYCQQNNEDPFTFGSGTKLEIKRNIQMTQTTSSLSASLGDRVTISCRASQDISNCLNWYQQKPDGTVKLLIYYTSRLHSGVPSRFSGSGSGTDYSLTISNLEQEDIATYFCQQGKTLPYAFGGGTKLEINRTVAAPSVFIFPPSDEQLKSGTASVVCLLNNFYPREAKVQWKVDNALQSGNSQESVTEQDSKDSTYSLSSTLTLSKADYEKHKVYACEVTHQGLSSPVTKSFNRGEC
